PubChem BioAssay AID624417 (National Center for Advancing Translational Sciences (NCATS), 2012)
The whole screen tested about 410,000 compounds, of which about 6,400 (1.6%) were called active. Inconclusive results, whose numbers are uncertain, are shown with a selection of clear calls. Calls come from the whole dose curve; as a rule, active = well fitted inhibition curve with a large enough effect; inconclusive = small, poorly fitted or top-dose-only effect; inactive = no such curve, though single readings can be large or run the other way. No potency is given beside an inconclusive call; the fits are too rough.
% is set by controls: 0 for no effect and ±100 for the full control effect; potency is the fitted concentration of half-maximal effect; tags give direction and shape of the fitted curve.
Note: nearly all actives have a fitted effect of over 55% in size.

These compounds were tested against Glucagon-like peptide 1 receptor (Homo sapiens) (UniProt P43220) (assay: qHTS of GLP-1 Receptor Inverse Agonists (Inhibition Mode)). Conditions: HEK293 GLP-1R CRE-luciferase, luminescence, 24 h, GLP-1R form is constitutively active; activity change, negative = inhibition: at 38.3 µM (top of the series) unless noted.
Sequence of UniProt P43220 (P43220 whole entry, looked up): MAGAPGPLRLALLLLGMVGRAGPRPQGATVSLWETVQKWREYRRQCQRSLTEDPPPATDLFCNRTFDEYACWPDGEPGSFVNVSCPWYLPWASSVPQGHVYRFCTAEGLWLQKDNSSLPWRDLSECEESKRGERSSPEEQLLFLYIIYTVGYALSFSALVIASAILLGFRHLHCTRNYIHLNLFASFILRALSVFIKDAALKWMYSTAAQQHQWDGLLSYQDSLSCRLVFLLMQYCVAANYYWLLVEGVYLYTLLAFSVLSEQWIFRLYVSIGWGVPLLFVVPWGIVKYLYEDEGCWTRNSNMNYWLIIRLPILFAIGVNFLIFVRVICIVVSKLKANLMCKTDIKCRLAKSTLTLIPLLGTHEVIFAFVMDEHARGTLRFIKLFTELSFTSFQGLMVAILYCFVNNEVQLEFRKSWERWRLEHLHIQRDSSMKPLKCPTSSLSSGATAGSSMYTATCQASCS
In short: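 Readout was luciferase luminescence, measured 12 min after detection reagent at room temperature. Beforehand, GLP-1R reporter HEK293 cells had sat 12 h, then received compounds for 24 hr at 37 deg C.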
With `CC(NC(=O)c1ccc(N2CCCC2)c([N+](=O)[O-])c1)c1ccc(S(N)(=O)=O)cc1` (centres undefined) the “activity change, negative = inhibition” value was inactive: 40.4%.
`CCCCCNS(=O)(=O)c1ccc(N2CCCCS2(=O)=O)cc1` was tested, and the Potency was inconclusive [inhibitor, partial curve, poor fit].
In the case of `COc1cccc2c(N/N=C/c3ccccc3)cc(C)nc12`, the Potency is reported as inconclusive [inhibitor, single point].
In the case of `Cc1nn(C)c(Cl)c1CN1CCCC(CO)(Cc2cccc(Cl)c2)C1` (centres undefined), the Potency is reported as inconclusive [inhibitor, partial curve, poor fit].
In the case of `Cc1cccc(C)c1OCc1cc(C(=O)N(Cc2c(C)nn(C)c2C)C2CC2)no1`, the Potency is reported as active: 7.94 µM.
In the case of `CCOC(=O)CSc1nc(COc2ccccc2)nc2ccccc12`, the Potency is reported as inconclusive [inhibitor, single point].
For `CSc1cccc(NC(=O)c2cc(S(=O)(=O)N3CCc4ccccc43)cn2C)c1`, the Potency was inconclusive [inhibitor, single point].
In the case of `CC(=O)N1N=C(c2cccc(NS(C)(=O)=O)c2)CC1c1ccc2c(c1)OCO2` (centres undefined), the “activity change, negative = inhibition” value is reported as inactive: 0.663%.
In the case of `Cc1c(C(=O)Nc2ccccc2F)sc2ncn(CC(=O)N3CCCCC3)c(=O)c12`, the Potency is reported as inconclusive [inhibitor, single point].
For `CCOc1ccccc1NC(=O)NCCC1=CCCCC1`, the Potency was inconclusive [inhibitor, partial curve, poor fit].
`O=C(NCc1cccnc1)C(=O)Nc1nc(-c2ccccc2)cs1` was tested, and the Potency was inconclusive [inhibitor, partial curve].
With `Cc1cccc(N(CC(=O)Nc2cccc(Cl)c2C)S(C)(=O)=O)c1C` the Potency was inconclusive [inhibitor, single point].
For `C[C@H](CO)N1C[C@H](C)[C@@H](CN(C)Cc2ccc(Oc3ccccc3)cc2)Oc2cc(Br)ccc2S1(=O)=O`, the Potency was inconclusive [inhibitor, single point].
For `Cc1ccc(S(=O)(=O)NCC(c2ccco2)N2CCN(c3ccccc3F)CC2)cc1` (centres undefined), the Potency was inconclusive [inhibitor, single point].
For `Cc1cc(C(=O)COC(=O)c2cccc(O)c2)c(C)n1C1CC1`, the Potency was inconclusive [inhibitor, full curve, poor fit].
`O=C1C(Cl)=C(N2CCCCCC2)C(=O)N1c1ccccc1Cl` was tested, and the Potency was inconclusive [inhibitor, partial curve, poor fit].
In the case of `CCOCCC(=O)Nc1ccc2c(c1)c(=O)n(C)n2CC=C(C)C`, the Potency is reported as inconclusive [inhibitor, partial curve].
`COc1ccc(CCC(=O)NCc2nc3cccnc3n2Cc2ccc(C)cc2)cc1` was tested, and the “activity change, negative = inhibition” value was inactive: 2.31%.
`COc1ccc(OC)c(-c2csc(NC(=O)CSCc3c(C)noc3C)n2)c1` was tested, and the Potency was inconclusive [inhibitor, partial curve, poor fit].
`CCOC(=O)[C@]12CCCC=C1N(Cc1ccccc1)C(=O)[C@H](CC(=O)N1CCC(c3ccccc3)CC1)C2` was tested, and the Potency was inconclusive [inhibitor, partial curve, poor fit].
With `O=C(CSc1nnnn1-c1ccccc1)Nc1ccc(N2CCOCC2)c(Cl)c1` the “activity change, negative = inhibition” value was inactive: -8.8%.
With `O=C(CN(c1ccc(Cl)cc1)S(=O)(=O)c1ccccc1)N/N=C/c1ccco1` the Potency was inconclusive [inhibitor, partial curve, poor fit].
`Cc1ccc2c(c1)-c1c(c(C(=O)NCCc3ccccc3)nn1C)CS2` was tested, and the Potency was inconclusive [inhibitor, single point].
In the case of `CCCn1nc(NC(=O)c2cccs2)c2cc3cc(OC)ccc3nc21`, the Potency is reported as inconclusive [inhibitor, partial curve, poor fit].
For `COc1cccc(CNC(=O)Cn2c(SCC(=O)Nc3ccc(F)cc3)nc3ccccc32)c1`, the “activity change, negative = inhibition” value was inactive: -20.1%.
For `CCCCN(CC)CCCNC(=O)C1CCN(c2nc3ccc(CC)cc3s2)CC1`, the Potency was inconclusive [inhibitor, single point].
With `CCOC(=O)CSc1nnc(-c2ccc(OC)cc2)n1CC` the “activity change, negative = inhibition” value was inactive: 5.97%.
For `Cc1c(C(=O)OCC(=O)N(C)C2CCS(=O)(=O)C2)oc2ccc(Br)cc12` (centres undefined), the “activity change, negative = inhibition” value was inactive: -3.8%.
In the case of `CCCN(C(=O)Cc1c(C(=O)O)[nH]c2ccc(Cl)cc12)c1ccc(OCC)cc1`, the Potency is reported as inconclusive [inhibitor, single point].
In the case of `O=C(COc1ccccc1)OC(C(=O)c1ccccc1)c1ccccc1` (centres undefined), the “activity change, negative = inhibition” value is reported as inactive: 15.9%.
`Fc1ccccc1C1CCN(Cc2nc(COc3ccccc3)no2)C1` (centres undefined) was tested, and the Potency was inconclusive [inhibitor, single point].
With `COC(=O)Cc1c(C)[nH]n(-c2cc(Cl)cc(Cl)c2)c1=O` the Potency was inconclusive [inhibitor, partial curve, poor fit].
`Clc1ccc(C2=CSC3=NCCN23)cc1Cl` was tested, and the Potency was inconclusive [inhibitor, single point].
With `O=C(Cc1ccccc1[N+](=O)[O-])NCCSCc1c(F)cccc1Cl` the Potency was inconclusive [inhibitor, single point].
For `O=C(CO/N=C/c1ccc(OC(F)F)cc1)NC1CCCCC1`, the Potency was inconclusive [inhibitor, single point].
In the case of `Brc1cccc(OCCN2CCc3ccccc3C2)c1`, the Potency is reported as inconclusive [inhibitor, partial curve, poor fit].
In the case of `CN(CCCCOc1ccc(F)cc1)Cc1ccccc1`, the Potency is reported as inconclusive [inhibitor, single point].
`CCOc1ccc(OCC(=O)N2CCC3(CC2)CC(=O)c2ccccc2O3)cc1` was tested, and the Potency was inconclusive [inhibitor, partial curve, poor fit].
With `COc1ccc(-c2nc(C)c(CCNC(=O)c3cc(OC)c(OC)c(OC)c3)s2)cc1OC` the “activity change, negative = inhibition” value was inactive: 19.5%.
`O=C(NCCCc1ccccc1)C1CCC(=O)N(CCc2ccc(Cl)cc2)C1` (centres undefined) was tested, and the Potency was inconclusive [inhibitor, single point].
`COc1ccc(OC)c2sc(N(Cc3cccnc3)C(=O)c3ccc(C(C)=O)cc3)nc12` was tested, and the “activity change, negative = inhibition” value was inactive: 32.2%.
With `CCC(C)NS(=O)(=O)c1ccc(OC)c(Cl)c1Cl` (centres undefined) the Potency was inconclusive [inhibitor, partial curve, poor fit].
In the case of `Cc1ccc(NC(=O)C2(N(C(=O)Cn3nnnc3N)c3ccc(C)cc3)CCCCC2)cc1`, the Potency is reported as inconclusive [inhibitor, partial curve, poor fit].
In the case of `CN1CCc2nc3ccc(Cl)cc3c(-c3ccccc3Cl)c2C1`, the Potency is reported as inconclusive [inhibitor, partial curve, poor fit].
For `CCCCNC(=O)CNC(=S)N(Cc1ccccc1F)C1CCCCC1`, the Potency was inconclusive [inhibitor, partial curve, poor fit].
With `CN(CC(=O)Nc1cc(S(=O)(=O)N2CCCC2)ccc1Cl)Cc1ccc2c(c1)OCO2` the Potency was inconclusive [inhibitor, single point].
In the case of `CCN(CC)c1ccc(S(=O)(=O)N2CCCCC2)cc1NC(=O)C1CCC1`, the Potency is reported as inconclusive [inhibitor, single point].
`COc1ccc(C2/C=C\CC(NC(=O)OCC3c4ccccc4-c4ccccc43)CC(=O)N2Cc2ccccc2F)cc1` (centres undefined) was tested, and the Potency was inconclusive [inhibitor, single point].
For `CCCCNC(=O)c1sc(=S)n2c1[nH]c(=O)c1ccc(C(=O)NCCc3ccc(OC)c(OC)c3)cc12`, the “activity change, negative = inhibition” value was inactive: 9.14%.
For `Cc1cccc(N(CC(=O)NCCSCc2ccccc2)S(C)(=O)=O)c1C`, the Potency was inconclusive [inhibitor, partial curve, poor fit].
In the case of `Cn1c(=O)c2[nH]c(-c3cccnc3)nc2n(C)c1=O`, the “activity change, negative = inhibition” value is reported as inactive: 12.9%.
With `CCOc1ccc(-n2c(C)nc3cc(C(=O)NCCN4CCOCC4)ccc32)cc1` the “activity change, negative = inhibition” value was inactive: -1.82%.
With `CC(C)C(=O)Nc1ccc(Nc2ccccc2)cc1` the Potency was inconclusive [inhibitor, single point].
In the case of `COc1ccc(OC)c(C(=O)/C=C/c2cccnc2)c1`, the Potency is reported as inconclusive [inhibitor, partial curve, poor fit].
For `O=C(NCc1ccccc1)c1cc(C2CCCCN2C(=O)CCCc2ccccc2)on1` (centres undefined), the Potency was inconclusive [inhibitor, single point].
For `COc1ccccc1C(=O)Nc1ccccc1SCc1cc(=O)c2ccccc2[nH]1`, the “activity change, negative = inhibition” value was inactive: 16.3%.
For `c1cc(CN2CCCCC2)cc(OCCCNc2nc3ccccc3s2)c1`, the Potency was inconclusive [inhibitor, single point].
In the case of `Cc1ccnc(NC(=O)CCNS(=O)(=O)c2ccc(C)c(C)c2)c1`, the Potency is reported as inconclusive [inhibitor, single point].
For `CN1CCN(c2ccc(Cl)cc2NC(=O)CC2OC(=O)c3ccccc32)CC1` (centres undefined), the Potency was inconclusive [inhibitor, single point].
For `Nn1c(Cc2cccc3ccccc23)nnc1SCc1ccccc1Cl`, the Potency was inconclusive [inhibitor, partial curve, poor fit].
For `COc1ccc(S(=O)(=O)N/N=C\c2ccc(OC)c(COc3ccc(C)cc3[N+](=O)[O-])c2)cc1`, the Potency was inconclusive [inhibitor, single point].
For `COc1cc2cc(C)nc(Cc3cccc4ccccc34)c2cc1OC`, the Potency was inconclusive [inhibitor, single point].
In the case of `C#Cc1cccc(Nc2nc(NCc3ccccc3OC)nc3ccsc23)c1`, the Potency is reported as inconclusive [inhibitor, partial curve, poor fit].
With `COc1ccccc1CCNC(=O)c1nc(-c2cccs2)no1` the Potency was inconclusive [inhibitor, single point].
